# Source: the supplement of paper PMC12217912
# Some of the results follow. The full chains were built here from the parent and the listed change. Values near 0.05 are background.
# B1: TEV protease; numbered along this chain (parent)
# chain: MGESLFKGPRDYNPISSSICHLTNESDGHTTSLYGIGFGPFIITNKHLFRRNNGTLVVQSLHGVFKVKDTTTLQQHLVDGRDMIIIRMPKDFPPFPQKLKFREPQREERICLVTTNFQTKSMSSMVSDTSCTFPSGDGIFWKHWIQTKDGQCGSPLVSTRDGFIVGIHSASNFTNTNNYFTSVPKNFMELLTNQEAQQWVSGWRLNADSVLWGGHKVFMVKPEEPFQPVKEATQL
# Variants of: B1
# Experiment: raw area under fraction-flipped curve 0-4 h after induction (AUC4h, not background-subtracted), DNA-recorder readout of cleavage of the substrate (dimensionless); higher = more cleavage of the substrate by the protease variant
# Settings: temperature: 34 °C; time window: 0-4 h after rhamnose induction
# Method: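 In vivo DNA recorder in E. coli TOP10(DE3) ΔrhaA at 34 °C. Each TEVp single-site mutant (parent TEVp 0) is paired with a single-site variant of the 7-mer TEVs (canonical ENLYFQ|S). The substrate sits between flexible linkers in a Bxb1-sfGFP-TEVs-SsrA fusion, so cleavage stabilises Bxb1 and speeds flipping of a recombination array, read by NGS. The value is the raw area under the fraction-flipped curve over 0-4 h after rhamnose induction (AUC4h), with ≥20 reads per time point. It is not background-subtracted; inactive controls average about 0.047.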
# 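Note: Bxb1 expression induced with 0.2% (w/v) L-rhamnose at OD600 near 0.5, cultures sampled hourly, flipped fraction per protease–substrate barcode pair counted by paired-end Illumina sequencing.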
Variant,area with substrate EALYFQS,area with substrate ECLYFQS,area with substrate EDLYFQS,area with substrate EELYFQS,area with substrate EFLYFQS,area with substrate EGLYFQS,area with substrate EHLYFQS,area with substrate EILYFQS,area with substrate EKLYFQS,area with substrate ELLYFQS,area with substrate EMLYFQS,area with substrate EPLYFQS,area with substrate EQLYFQS,area with substrate ERLYFQS,area with substrate ESLYFQS,area with substrate EVLYFQS,area with substrate EYLYFQS,area with substrate ETLYFQS,area with substrate EWLYFQS
N206F,0.096,0.0852,0.0828,0.1,0.0863,0.0867,0.0833,0.0822,0.0524,0.073,0.087,0.1,0.0861,0.0831,0.0887,0.0902,0.0924,–,–
D208M,0.0614,–,–,0.0844,0.0566,0.0826,0.108,0.0721,0.0663,0.0903,0.0869,–,0.104,–,0.0777,0.0683,–,0.0959,–
D208T,0.0539,–,0.103,0.0721,–,–,0.0695,0.0987,–,–,0.0861,0.0883,0.0801,0.0773,–,0.0728,–,0.106,–
D208Y,0.0848,0.0686,0.0809,0.0504,–,0.0483,0.0568,0.0595,0.0797,0.062,0.0811,0.0323,0.0855,0.0659,–,0.0517,0.0895,0.065,0.0607
D208C,0.0593,0.0798,0.0774,0.0961,–,–,0.0697,0.0709,0.084,–,0.0461,0.0541,0.1,0.0917,0.079,0.066,–,0.0696,0.0733
S201D,0.0785,0.0696,0.084,0.0832,0.091,0.0809,0.0663,0.0518,0.0736,0.0843,0.0764,0.0893,0.084,0.0862,0.0754,0.0604,0.0715,–,–
V220Q,0.128,0.118,0.104,0.0893,0.116,0.108,0.113,0.1,0.123,0.0916,0.0996,0.133,0.127,0.129,0.0953,0.129,0.0984,0.117,0.134
R204I,0.118,0.111,0.13,0.149,0.103,0.0946,0.118,0.094,0.0908,0.09,0.1,0.133,0.142,0.116,0.104,0.109,0.123,0.134,0.0941
H215Q,0.0761,0.0829,0.0838,0.0744,0.0709,0.0576,0.0586,0.0681,0.0626,0.0894,–,–,0.0717,0.065,0.0659,–,0.0531,–,–
Q197Y,0.101,–,0.0972,–,–,–,–,0.0804,–,–,–,–,–,–,0.0748,–,–,–,0.0886
K221E,0.116,0.0886,0.15,0.0915,0.0873,0.0768,0.104,0.0723,0.126,0.0859,0.0946,0.115,0.0867,–,0.0957,0.06,0.0445,–,0.0904
T192L,0.119,0.103,–,–,–,0.0788,0.0954,0.11,–,–,–,0.118,0.111,–,0.107,0.0967,–,–,0.0854
T192N,0.107,0.149,0.109,0.106,–,0.112,0.126,0.101,–,0.083,–,0.152,0.118,0.0611,0.106,0.0774,0.124,–,0.108
T192S,0.0848,0.118,0.0882,0.102,–,–,–,0.0948,–,0.0999,0.088,0.13,–,0.138,0.086,0.0925,–,0.0938,–
Q198F,0.0996,0.0895,0.097,0.0764,0.0836,0.0798,0.102,0.0839,0.0931,0.0777,0.121,0.184,0.105,0.0913,0.0836,0.0802,0.0965,0.0914,0.085
G214S,0.13,–,0.11,0.104,–,–,–,0.0681,–,–,–,–,0.16,–,0.0967,0.0885,–,–,–
E224L,0.129,0.0981,0.112,–,0.129,0.111,0.0537,–,0.113,0.0946,0.108,0.137,0.0959,–,0.0975,–,–,0.0952,–
E224I,0.0952,0.105,–,0.12,0.0795,–,0.0975,0.0963,0.0718,0.105,0.0893,–,–,0.103,0.088,0.0698,–,–,–
E224Q,0.0906,0.139,–,0.0799,0.111,–,–,0.0892,0.111,0.0766,0.0795,0.115,–,0.0961,0.0988,0.123,–,0.13,–
E224D,0.125,0.0982,–,0.0895,–,0.102,–,0.116,–,0.086,0.122,0.142,–,0.103,0.123,–,0.105,0.101,–
V210Y,0.118,–,0.137,0.0963,–,–,0.0968,0.0768,–,0.0791,–,0.0981,0.102,0.0784,0.0954,0.0798,0.0955,0.0896,0.0904
N186Y,0.122,0.0974,–,–,–,–,–,–,–,–,–,–,–,–,0.0978,0.0939,–,–,0.0977
N186A,0.132,–,0.128,–,–,–,–,0.114,0.0756,–,–,–,–,–,0.119,0.0954,–,–,–
W199G,0.0348,0.101,0.078,–,–,0.0607,0.0545,0.0625,–,–,–,0.0511,0.064,0.0573,0.0621,0.0676,0.0652,–,–
E223L,0.0965,0.0856,0.122,0.099,0.104,0.0844,0.0756,0.103,0.0854,0.0801,0.0809,0.094,0.107,0.0818,0.083,0.0856,–,0.0883,–
V217W,0.0535,–,–,0.0672,–,–,–,–,–,0.0615,0.0604,0.0641,0.066,0.0684,0.0639,–,0.0627,–,0.0635
